This passage reports result_ITMP results from publication PMC13083723 (Patterns, 2026).

Screen size: about 5,400 compounds; about 190 (3.5%) showed an effect of 50% or more. This is one part of the list. Residues, ends and D or L forms follow the SMILES beside them. *: point of attachment. PhAc = O=C(Cc1ccccc1)*

The test system of this assay is Vero-E6. Put plainly: primary screen, phospholipidosis by LipidTOX staining; higher = more effect of the substance. As to conditions: 10 µM. The procedure, abridged: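 Drug-induced phospholipidosis detected with HCS LipidTOX Red reagent in Vero-E6 cells. Compounds tested at 10 μM, with amiodarone (10 μM) as positive control and DMSO (0.1 v/v %) as vehicle.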
As for `O=c1[nH]c(=O)n([C@H]2C[C@H](O)[C@@H](CO)O2)cc1/C=C/Br`, the result_ITMP is recorded as -9.45%.
The value for `Cc1ccc2c(c1)Cc1c(C(=O)NN3CCCCC3)nn(-c3ccc(Cl)cc3Cl)c1-2` was 7.07%; that for `COc1ccc(-c2cc3c(C)nc(N)nc3n([C@H]3CC[C@H](OCCO)CC3)c2=O)cn1` was 14.3%; that for `NCC(=O)N1C[C@H](NC(=O)c2ccccc2)C[C@H]1C(=O)O` was 0.51%.
The value for `O=C(CCN1CCN(C(=O)OCc2cc(Cl)cc(Cl)c2)CC1)c1ccc2[nH]c(=O)oc2c1` was 4.78%; that for `CN1CCc2cc3c(cc2[C@H]1[C@@H]1OC(=O)c2c1ccc1c2OCO1)OCO3` was -1.82%; that for `O=S(=O)(NCCCCCCc1ccccc1)c1cccc2c(Cl)cccc12` was -7.16%.
Then `O=C(Nc1ccc(-c2ccncc2)cc1)N[C@H](CO)c1ccccc1`, with 7.28%; and `O=C1C(Cl)=C(NCCN2CCOCC2)C(=O)c2ncccc21`, with 8.37%.
`COc1ccc(-c2oc3c(CC=C(C)C)c(O)cc(O)c3c(=O)c2O)cc1`: the result_ITMP was 0.17%.
Then `Cc1nc2ccccc2c(-c2ccc3c4c(ccnc24)CCO3)c1[C@H](OC(C)(C)C)C(=O)O`, with -3.54%; and `Clc1ccc(-c2nc3sccn3c2/C=N/OCc2ccc(Cl)c(Cl)c2)cc1`, with -2.29%.
Consider `CCN1CCC[C@H]1CNC(=O)c1cc(S(N)(=O)=O)ccc1OC`, for which the result_ITMP was -2.06%.
The value for `Nc1ccc(S(N)(=O)=O)cc1` was -4.23%; that for `COc1cc2ncnc(Nc3ccc(Oc4ccccc4)cc3)c2cc1OC` was -0.42%; that for `CCCCCCCCCCCC(=O)O` was 2.9%.
For `CC1CCN(CCCC(=O)c2ccc(F)cc2)CC1`, the result_ITMP was -2.94%.
The value for `CC1=C(C(=O)OCCN(Cc2ccccc2)c2ccccc2)C(c2cccc([N+](=O)[O-])c2)C(P2(=O)OCC(C)(C)CO2)=C(C)N1` (stereo not shown) was -1.99%.
Then `C1CCC2(CC1)CCNCC2`, with 3.06%; and `N.N.[Cl][Pt][Cl]`, with 4.77%; and `[N-]=[N+]=N[C@]1(CO)O[C@@H](n2ccc(N)nc2=O)[C@@H](O)[C@@H]1O`, with -1.12%.
The value for `CS(=O)(=O)c1ccc(Oc2cc(F)cc(C#N)c2)c2c1[C@H](O)C(F)(F)C2` was -2.29%; that for `CCOC(=O)CSCCC1NC(C(=O)O)CS1` (stereo not shown) was -3.45%; that for `CC(C)CCC[C@@H](C)[C@H]1CC[C@H]2[C@@H]3CCC4=CC(=NO)CC[C@]4(C)[C@H]3CC[C@]12C` was -0.61%.
For the compound `CCCNS(=O)(=O)Nc1ncnc(OCCOc2ncc(Br)cn2)c1-c1ccc(Br)cc1`, the result_ITMP is -14.1%.
The value for `CC(CCc1ccc(O)cc1)NCCc1ccc(O)c(O)c1` (stereo not shown) was -2.76%.
Then `N[C@@H](CCC(=O)N[C@@H](CSN=O)C(=O)NCC(=O)O)C(=O)O`, with 3.47%; and `CC(=O)c1ccc(NS(C)(=O)=O)c(Oc2ccc(F)cc2F)c1`, with -1.81%; and `CC(O)(C(=O)Nc1ccc(S(=O)(=O)c2ccccc2)cc1)C(F)(F)F` (stereo not shown), with -0.72%.
Then `CCOCc1cc(OC)c(-c2ccc(C[C@H](NC(=O)c3c(F)cccc3F)C(=O)O)cc2)c(OC)c1`, with -0.72%; and `CCCCCNCC(N)=O`, with -5.73%.
Regarding `CCN1CCCC1CNC(=O)c1cc(S(N)(=O)=O)ccc1OC` (stereo not shown), the result_ITMP is listed as -0.35%.
Then `COC(=O)CC[C@@H]1N=C(c2ccccn2)c2cc(Br)ccc2-n2c(C)cnc21`, with -1.29%; and `COc1ccc(-c2ccc3cc(C(=O)O)ccc3c2)cc1C12CC3CC(CC(C3)C1)C2`, with -3.41%; and `Cc1[nH]c(/C=C2\C(=O)Nc3cc(-c4ccccc4)ccc32)c(C)c1CCC(=O)O`, with -0.9%.
Then `COc1cc2c(NC3CCN(CC4CCCCC4)CC3)nc(N3CCCN(C(C)C)CC3)nc2cc1OCCCN1CCCCC1`, with -1.28%; and `Nc1cc(C(F)(F)F)c(-c2nc(N3CCOCC3)nc(N3CCOCC3)n2)cn1`, with 0.11%.
The value for `O=C(NCCO)c1cc(C(=O)NCCO)cc(C(=O)NCCO)c1` was -1.92%.
As for `CCCC(C)C1(CC)C(=O)NC(=O)NC1=O` (stereo not shown), the result_ITMP was -1.95%.
The value for `O=C(O)c1cccnc1` was -2.51%.
As to `Nc1nccc2c1ncn2[C@@H]1C=C(CO)[C@@H](O)[C@H]1O`, the result_ITMP is given as -12.7%.
Then `CCCCCCCNS(=O)(=O)c1cccc2c(Cl)cccc12`, with 3.17%.
On to `CCCCc1oc2ccccc2c1C(=O)c1cc(I)c(OCCN(CC)CC)c(I)c1`, for which the result_ITMP was 55.1%.
Then `Cc1cnc(C(=O)N[C@H]2CCCCC/C=C\[C@@H]3C[C@@]3(C(=O)NS(=O)(=O)C3CC3)NC(=O)[C@@H]3C[C@@H](Oc4nc5ccccc5c5ccccc45)CN3C2=O)cn1`, with 0.45%.
Then `COc1cc2c(cc1OC)CN(C(=O)[C@@H](NCc1ccncc1)C(C)(C)C)CC2`, with 6.96%; and `CN1CCN(c2ccc3nc(-c4c(N)c5c(F)cccc5[nH]c4=O)[nH]c3c2)CC1`, with 19.1%; and `O=c1[nH]c(=O)n([C@H]2C[C@H](O)[C@@H](CO)O2)cc1I`, with -5.58%.
Then `Cc1cccc(N(C)C(=S)Oc2ccc3ccccc3c2)c1`, with -4.15%; and `C=CCNC1=C2C[C@@H](C)C[C@H](OC)[C@H](O)[C@@H](C)/C=C(\C)[C@H](OC(N)=O)[C@@H](OC)/C=C\C=C(/C)C(=O)NC(=CC1=O)C2=O`, with -3.29%.
As for `C[C@@H]1CC[C@@]2(OC1)O[C@H]1C[C@H]3[C@@H]4CC=C5C[C@@H](O)CC[C@]5(C)[C@H]4CC[C@]3(C)[C@H]1[C@@H]2C`, the result_ITMP was 8.94%.
The value for `N[C@@H](COP(=O)(O)O)C(=O)O` was -6.25%; that for `Cc1ccc(S(=O)(=O)OCC(=O)Nc2ccc(C(=O)O)c(O)c2)cc1` was -0.81%.
Then `C[C@H]1C[C@H]2[C@@H]3CCC4=CC(=O)C=C[C@]4(C)[C@H]3C(=O)C[C@]2(C)[C@@]1(O)C(=O)CO`, with -6.07%; and `Clc1ccc(C23CNCC2C3)cc1Cl` (stereo not shown), with 0.19%; and `CCOC(=O)CNC(=O)[C@@H]1CCCN1C(=O)Cc1ccccc1` (PhAc-Pro-Gly-OEt), with -1.74%.
The value for `O=C(O)CCCN1CCC(O[C@@H](c2ccc(Cl)cc2)c2ccccn2)CC1` was 2.29%; that for `O=C(Nc1ncc(SCCN2CCCC2)s1)[C@]1(c2ccc(S(=O)(=O)C3CC3)cc2)C[C@H]1C1CCCCC1` was 55.8%.
For `CO/N=C(/C(=O)N[C@@H]1C(=O)N2C(C(=O)O)=C(CSC(=O)c3ccco3)CS[C@H]12)c1csc(N)n1`, the result_ITMP is -6.25%.
Then `CN(C(=O)CCCOc1ccc2[nH]c(=O)ccc2c1)C1CCCCC1`, with -1.64%; and `NNC(=O)c1ccncc1`, with -5.81%; and `CC(C)[C@]12O[C@H]1[C@@H]1O[C@]13[C@]1(O[C@H]1C[C@H]1C4=C(CC[C@@]13C)C(=O)OC4)[C@@H]2O`, with 17.6%.
Then `C/C(=N\c1ccccc1N)c1c(C)cc(=O)n(O)c1O`, with 1.39%; and `CN1CCN(C(=O)c2nc3ccc(Cl)cc3[nH]2)CC1`, with -5.89%; and `COc1ccc(Br)cc1S(=O)(=O)NC(=O)/C=C/c1ccccc1Cc1ccc2ccccc2c1`, with -0.88%.
Then `CN1[C@@H]2C[C@@H](O)C[C@H]1[C@@H]1O[C@@H]12`, with 17.2%; and `CCO/N=C(/C(=O)NC1C(=O)N2C(C(=O)O)=C(Sc3nc(-c4cc[n+](C)cc4)cs3)CS[C@H]12)c1nsc(NP(=O)(O)O)n1` (stereo partly shown), with -4.85%.
For the compound `COc1cccc(OC)c1C(=O)N[C@@H]1C(=O)N2[C@@H]1SC(C)(C)[C@@H]2C(=O)[O-]`, the result_ITMP is on record as -9.2%.
Then `[Cl][Ru]([Cl])([Cl])[Cl].c1ccc2[nH]ncc2c1.c1ccc2[nH]ncc2c1`, with -2.33%; and `CCCCC(CC)COc1ccc(-c2nc(-c3ccc(OC)cc3)nc(-c3ccc(OCC(CC)CCCC)cc3O)n2)c(O)c1` (stereo not shown), with -4.63%; and `NS(=O)(=O)NCc1csc2ccccc12`, with 3.3%.
Then `N#Cc1c(Oc2ccc(F)c(NC(=O)Cc3cccc(C(F)(F)F)c3)c2)ccc2nc(NC(=O)C3CC3)sc12`, with -9.62%; and `Cc1cc(OCc2nc(-c3ccccc3Cl)cs2)ccc1OCC(=O)O`, with -3.62%; and `CN1CCCN=C1/C=C/c1cccs1`, with -2.17%.
Then `C[C@@H]([C@H](C)O)[C@H](N)C(=O)O`, with 0.75%.
Turning to `O=c1cc[nH]c(=O)[nH]1`, the result_ITMP is listed as -8.91%.
Then `CCOC(=O)N1c2ccc(C(F)(F)F)cc2[C@@H](N(Cc2cc(C(F)(F)F)cc(C(F)(F)F)c2)C(=O)OC)C[C@H]1CC`, with -11.2%.
The value for `OC[C@H]1O[C@@H](O[C@@H]2[C@@H](CO)O[C@](O)(CO)[C@H]2O)[C@H](O)[C@@H](O)[C@H]1O` was -3.22%; that for `Cc1ccc(C(=O)Nc2cccc(C(F)(F)F)c2)cc1Nc1nc(-c2cccnc2)nc2c1cnn2C` was -4.6%.
The value for `NC(=O)C(c1ccccc1)(c1ccc(F)cc1)c1ccc(F)cc1` was -0.04%; that for `Nc1ccn([C@H]2CO[C@@H](CO)S2)c(=O)n1` was -0.01%; that for `Cc1c(N)cccc1Cn1ccc(OCCc2cccs2)cc1=O` was -2.44%.
Turning to `COc1ccc(-c2cc(=O)c3c(OC)c(OC)c(OC)c(OC)c3o2)cc1OC`, the result_ITMP was -2.5%.
Then `c1ccc(Oc2nc(NC3CCCCC3)c3nc[nH]c3n2)cc1`, with -2.48%.
The value for `Cc1cccc(-c2nn3c(c2-c2ccnc4ccc(C(N)=O)cc24)CCC3)n1` was -5.5%.
The value for `O=c1n(Cl)c(=O)n(Cl)c(=O)n1Cl` was -3.7%; that for `O=C(Nc1cccnc1)N1CCC(Cc2cccc(Oc3ccc(C(F)(F)F)cn3)c2)CC1` was -6.14%; that for `O=C(Nc1ccc([N+](=O)[O-])cc1Cl)c1cc(Cl)ccc1O` was -4.22%.
For the compound `CCOc1ccc(Cc2nccc3cc(OCC)c(OCC)cc23)cc1OCC`, the result_ITMP is 0.61%.
